In all, about 310,000 compounds went through this assay and about 2,200 (0.71%) showed an effect of 50% or more. Effects have a minus sign here. This is one part of the list.

The target of this test is human ether-à-go-go-related gene (hERG) potassium channel (human, UniProt Q12809). Put plainly: primary screen, population patch clamp on CHO cells stably expressing hERG.
Chain of human ether-à-go-go-related gene (hERG) potassium channel (Q12809 whole entry, looked up): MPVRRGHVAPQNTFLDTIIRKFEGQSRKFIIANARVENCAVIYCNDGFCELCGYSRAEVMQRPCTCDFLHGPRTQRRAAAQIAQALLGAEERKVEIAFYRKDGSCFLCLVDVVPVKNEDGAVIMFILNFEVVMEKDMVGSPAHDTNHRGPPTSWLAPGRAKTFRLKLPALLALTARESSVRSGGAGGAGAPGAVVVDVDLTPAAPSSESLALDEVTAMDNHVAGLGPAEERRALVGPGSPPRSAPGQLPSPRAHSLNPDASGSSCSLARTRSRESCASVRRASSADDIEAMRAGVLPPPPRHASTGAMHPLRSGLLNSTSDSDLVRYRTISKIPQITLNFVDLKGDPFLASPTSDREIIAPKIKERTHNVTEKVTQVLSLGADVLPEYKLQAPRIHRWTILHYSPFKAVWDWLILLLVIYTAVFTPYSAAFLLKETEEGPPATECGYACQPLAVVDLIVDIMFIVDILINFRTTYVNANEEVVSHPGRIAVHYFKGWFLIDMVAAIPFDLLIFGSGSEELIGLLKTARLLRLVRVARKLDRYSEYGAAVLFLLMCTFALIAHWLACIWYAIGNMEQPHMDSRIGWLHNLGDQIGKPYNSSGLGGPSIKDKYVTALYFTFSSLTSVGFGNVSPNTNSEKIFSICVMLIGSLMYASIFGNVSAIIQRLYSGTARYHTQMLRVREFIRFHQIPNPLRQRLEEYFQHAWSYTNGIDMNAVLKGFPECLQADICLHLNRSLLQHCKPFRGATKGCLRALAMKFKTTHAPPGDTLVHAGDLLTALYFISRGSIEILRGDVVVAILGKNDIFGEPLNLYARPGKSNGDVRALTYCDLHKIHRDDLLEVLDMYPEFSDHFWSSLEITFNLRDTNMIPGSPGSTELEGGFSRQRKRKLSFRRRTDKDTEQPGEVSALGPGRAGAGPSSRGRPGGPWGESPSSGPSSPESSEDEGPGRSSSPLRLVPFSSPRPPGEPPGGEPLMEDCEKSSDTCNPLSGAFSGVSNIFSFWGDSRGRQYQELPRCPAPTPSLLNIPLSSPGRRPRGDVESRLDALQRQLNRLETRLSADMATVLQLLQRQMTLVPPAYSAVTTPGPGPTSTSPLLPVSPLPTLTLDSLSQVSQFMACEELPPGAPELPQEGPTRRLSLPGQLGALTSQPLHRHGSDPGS
With `NC(=O)NC(=O)CN1c2cccc3cccc(c23)S1(=O)=O`, the “hERG current change (%, negative = inhibition) at 1uM” value was found to be 10.1%.

For the compound `O=C(N/N=C/c1ccco1)c1ccc(N2CCCC2=O)cc1`, the “hERG current change (%, negative = inhibition) at 1uM” value is listed as 11.2%.

On to `CCOC(=O)N1CCN(C(=O)c2ccc(CS(=O)Cc3ccc(C)cc3)o2)CC1` (stereo not drawn), for which the “hERG current change (%, negative = inhibition) at 1uM” value amounted to 6.04%.

Regarding `CC(=O)c1ccc(S(=O)(=O)NCCC(=O)OCC(=O)NCCc2ccccc2)cc1`, the “hERG current change (%, negative = inhibition) at 1uM” value worked out at 11.6%.

As to `O=C(CCC(=O)N(CC(=O)NC1CCCC1)c1cccc(F)c1)Nc1nccs1`, the “hERG current change (%, negative = inhibition) at 1uM” value was -6.62%.

With `CCOC1=C/C(=C/c2c(N)n3nc(CC(=O)N4CCCCC4)sc3nc2=O)C=CC1=O`, the “hERG current change (%, negative = inhibition) at 1uM” value is 14.6%.

Consider `CC1=C(C(=O)OC2CCCCC2)C(c2ccc(C)o2)C2=C(CC(C)(C)CC2=O)N1` (stereo not drawn), for which the “hERG current change (%, negative = inhibition) at 1uM” value is listed as 0.211%.

For `CCC(=O)c1ccc(O)c(OC)c1`, the “hERG current change (%, negative = inhibition) at 1uM” value was 3.34%.

With `Cc1ccc2c(c1)N(CC(=O)NCc1cccnc1)C(=O)CO2`, the “hERG current change (%, negative = inhibition) at 1uM” value is listed as 10.8%.

With `OCCNc1nc2ccccc2n1CC(O)c1ccccc1` (stereo not drawn), the “hERG current change (%, negative = inhibition) at 1uM” value is reported as 6.32%.

On to `CN(C)C(=N)c1n[nH]nc1SCc1ccccc1.Cl`, for which the “hERG current change (%, negative = inhibition) at 1uM” value came out at 16.4%.

As for `Cc1ccc(OCCN2CCN(c3nc(NCc4ccco4)c4ccccc4n3)CC2)cc1`, the “hERG current change (%, negative = inhibition) at 1uM” value was determined as 2.8%.

Take `O=C(Cc1c[nH]c2ccccc12)N1CCc2ccccc21`: the “hERG current change (%, negative = inhibition) at 1uM” value turned out to be 7.11%.

For the compound `Cc1cc(C(=O)NCc2cccnc2)n(-c2ccccc2)n1`, the “hERG current change (%, negative = inhibition) at 1uM” value is reported as -5.81%.

`CCn1c(SCC(=O)N2CCOCC2)nc2c(c1=O)SC(C)C2` (stereo not drawn): the “hERG current change (%, negative = inhibition) at 1uM” value is 17%.

For the compound `COC(=O)c1ccccc1NC(=O)Nc1ccc(C)cn1`, the “hERG current change (%, negative = inhibition) at 1uM” value came out at 14.2%.

`CCOc1ccc2[nH]c(=O)c(CN(CCO)C(=O)c3ccccc3F)cc2c1`: the “hERG current change (%, negative = inhibition) at 1uM” value was found to be 3.3%.

`COc1cc(OC)c2c(-c3ccccc3)cc(=O)oc2c1C(CCN1CCCC1)c1ccc2c(c1)OCO2` (stereo not drawn): the “hERG current change (%, negative = inhibition) at 1uM” value is reported as -12%.

On to `Cc1c(NC(=O)C2CCCN2C(=O)c2cccs2)c(=O)n(-c2ccccc2)n1C` (stereo not drawn), for which the “hERG current change (%, negative = inhibition) at 1uM” value worked out at 13.5%.

As to `CCOC(=O)CN(C(=O)CSc1nnc2c(n1)[nH]c1ccccc12)c1ccccc1`, the “hERG current change (%, negative = inhibition) at 1uM” value is on record as 5.75%.

Turning to `CN(Cc1cnc2nc(N)nc(N)c2n1)c1ccc(C(=O)N[C@@H](CCC(=O)O)C(=O)O)cc1.O`, the “hERG current change (%, negative = inhibition) at 1uM” value worked out at 12.6%.

For `O=C1C2C(C(=O)N1Cc1ccco1)C1C=CC2C12CC2` (stereo not drawn), the “hERG current change (%, negative = inhibition) at 1uM” value was 14%.

As for `CC(C)(C)c1ccc(OCCC(=O)Nc2cccc(S(=O)(=O)N3CCOCC3)c2)cc1`, the “hERG current change (%, negative = inhibition) at 1uM” value stood at 5.64%.

Consider `COc1ccc(OCC(O)CNC(=O)/C=C/c2cccc([N+](=O)[O-])c2)cc1` (stereo not drawn), for which the “hERG current change (%, negative = inhibition) at 1uM” value was 14.8%.

For the compound `C=CCSc1nc(C)cc(C(=O)OCC)c1C#N`, the “hERG current change (%, negative = inhibition) at 1uM” value is reported as 3.77%.

`Cc1cccc(N(CC(=O)NC2CCCC2)C(=O)c2nsc(Cl)c2Cl)c1C`: the “hERG current change (%, negative = inhibition) at 1uM” value came to 17.4%.

With `COc1ccc(C2(C)NC(=O)N(CC(=O)c3ccc4c(c3)OCO4)C2=O)cc1` (stereo not drawn), the “hERG current change (%, negative = inhibition) at 1uM” value stood at 10.2%.

For `O=C(NC1CC1)c1cc2c(s1)CS(=O)(=O)C2`, the “hERG current change (%, negative = inhibition) at 1uM” value is given as 13.8%.

As to `COc1ccc2nc(NC(=O)c3ccccc3C(=O)O)sc2c1`, the “hERG current change (%, negative = inhibition) at 1uM” value came to 15.2%.

In the case of `Cc1cc(C(=O)OCC(=O)Nc2c(F)cccc2F)c(C)n1-c1ccccc1`, the “hERG current change (%, negative = inhibition) at 1uM” value is 13.7%.

Consider `CC(=O)C1=C(c2ccccc2)NC(=O)NC1c1ccc(O)c(Cl)c1` (stereo not drawn), for which the “hERG current change (%, negative = inhibition) at 1uM” value amounted to 12.9%.

As for `C1COCCO1.Nc1c(C(=O)O)sc2nc(-c3ccccc3)cc(-c3ccccc3)c12`, the “hERG current change (%, negative = inhibition) at 1uM” value was found to be 5.14%.

As for `CCN(C(=O)c1cccc(S(=O)(=O)N(C)C)c1)C12CC3CC(CC(C3)C1)C2`, the “hERG current change (%, negative = inhibition) at 1uM” value was found to be 14.6%.

In the case of `NC(=O)COC(=O)CCSc1ccc(Cl)cc1`, the “hERG current change (%, negative = inhibition) at 1uM” value came out at 13.5%.

`COc1ccc(N/C(N)=N/c2nc(CSc3ccc(C)cc3)cc(=O)[nH]2)cc1`: the “hERG current change (%, negative = inhibition) at 1uM” value is recorded as -10.7%.

Regarding `COc1ccc(OC)c([C@@H](O)[C@H](C)NC(C)(C)C)c1.Cl`, the “hERG current change (%, negative = inhibition) at 1uM” value is on record as 12.5%.

As to `CCN(CC)c1ccc(/C=N/NC(=O)CNC(=O)c2cccnc2)cc1`, the “hERG current change (%, negative = inhibition) at 1uM” value is on record as 12%.

As for `CCC(=O)N1CCN(c2ccc(Cl)cc2NC(=O)c2cccc([N+](=O)[O-])c2)CC1`, the “hERG current change (%, negative = inhibition) at 1uM” value is given as -32%.

With `O=C(CN1CCOCC1)NCCNC(=O)CN1CCOCC1`, the “hERG current change (%, negative = inhibition) at 1uM” value is 7.31%.

For the compound `CS(=O)(=O)N1c2ccccc2[C@]2(Br)C[C@H]3C(=O)N[C@@H](Cc4ccccc4)C(=O)N3[C@H]12`, the “hERG current change (%, negative = inhibition) at 1uM” value was 6.11%.

`Cc1oc(-c2ccccc2Cl)nc1CN1CCCN(C(=O)c2ccco2)CC1`: the “hERG current change (%, negative = inhibition) at 1uM” value is -21.4%.

In the case of `CCCCN1CC(COc2ccccc2)OC1=O` (stereo not drawn), the “hERG current change (%, negative = inhibition) at 1uM” value is given as -6.39%.

Consider `Cc1cccc(C)c1NC(=O)C1(N(Cc2ccco2)C(=O)CC2NC(=O)NC2=O)CCCCC1` (stereo not drawn), for which the “hERG current change (%, negative = inhibition) at 1uM” value is 6.02%.

As to `O=C(Nc1cccc(-c2nnc(-c3ccccc3)o2)c1)c1ccco1`, the “hERG current change (%, negative = inhibition) at 1uM” value is listed as 6.9%.

With `COc1ccc(OC)c(NC(=O)c2nc(-c3ccccc3)oc2C)c1`, the “hERG current change (%, negative = inhibition) at 1uM” value was 13.1%.

Take `O=C(Nc1ccc(S(=O)(=O)Nc2ncccn2)cc1)C12CC3CC(CC(C3)C1)C2`: the “hERG current change (%, negative = inhibition) at 1uM” value is reported as 14.5%.

`Nc1cc2nsnc2cc1Br`: the “hERG current change (%, negative = inhibition) at 1uM” value was 11%.

For the compound `CC(C)NC(=O)CC1C(=O)NCCN1CC(c1ccccc1)c1ccccc1` (stereo not drawn), the “hERG current change (%, negative = inhibition) at 1uM” value was found to be 2.97%.

On to `O=C(NC1(C(=O)NC2CCCC2)CCCCC1)c1ccc2c(c1)OCO2`, for which the “hERG current change (%, negative = inhibition) at 1uM” value is on record as 4.98%.

`Cc1ccc(C(=O)CCC(=O)OCC(=O)Nc2ccccc2SCC#N)cc1`: the “hERG current change (%, negative = inhibition) at 1uM” value worked out at 2.91%.

On to `Cc1ccc(N2CCCn3c2cc(C)c(C#N)c3=O)cc1Cl`, for which the “hERG current change (%, negative = inhibition) at 1uM” value is -1.52%.

Consider `C=CCn1c(SCC(=O)NCCO)nc2sc(C)c(C)c2c1=O`, for which the “hERG current change (%, negative = inhibition) at 1uM” value is recorded as 17.5%.

Consider `CC(C)(/C=N/O)N(O)C=C1C=CC(=O)C=C1`, for which the “hERG current change (%, negative = inhibition) at 1uM” value stood at 11.7%.

On to `CCOc1cc(CNCCO)c(Cl)cc1OCC(=O)NCCc1ccccc1`, for which the “hERG current change (%, negative = inhibition) at 1uM” value was found to be 9.54%.

For `CC(=O)Nc1ccc(NS(=O)(=O)c2ccc3[nH]c(=O)[nH]c3c2)cc1`, the “hERG current change (%, negative = inhibition) at 1uM” value is 1.67%.

`COc1ccccc1/C=C/C(=O)NCC(=O)n1nc(C)cc1C`: the “hERG current change (%, negative = inhibition) at 1uM” value is listed as 14.5%.

On to `CCOC(=O)C1=C(CN2CCc3ccccc32)NC(=O)NC1c1ccc(Cl)cc1` (stereo not drawn), for which the “hERG current change (%, negative = inhibition) at 1uM” value is -2.45%.

The values are drawn from article PMC4336329 (PLoS ONE, 2015).
